This note sets out measurements from PubChem BioAssay (NCI).

Values joined by “and” are separate entries in the source; they are usually repeats but may differ in a detail not shown here. Equal values may be shown once.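 Protocol summary: plate cells (96-well), add compound at 5 concentrations, incubate 48 h, interpolate endpoints linearly. Abbreviation: GI50, concentration required for 50% inhibition of growth. TGI denotes the concentration required for complete inhibition of growth.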

The test system of the test is NCI-H322M lung. As to the kind of experiment: NCI-60 cell line screen, 48 h.
In turn, `CN(C)CCNC(=O)c1cc(-c2nccn2C)nc2ccccc12` showed a TGI of over 100 µM.

Take `CC(C)CCCC(C)[C@H]1CC[C@H]2[C@@H]3CC[C@H]4C[C@@H](CCC=C(c5cc(Cl)c(O)c(C(=O)O)c5)c5cc(Cl)c(O)c(C(=O)O)c5)CC[C@]4(C)[C@H]3CC[C@]12C` (some centres undefined) (tested in a mixture with another compound): the TGI was over 50 µM.

For `CS(=O)(=O)Nc1cc(-c2ccc3ncnc(Nc4ccc5c(cnn5Cc5ccccc5F)c4)c3c2)cnc1Cl`, the GI50 was 2.78 µM and the TGI amounted to 20 µM.

In the case of `COC(=O)[C@@H](C)C[C@H](Cc1ccccc1)NC(=O)c1csc([C@@H](C[C@H](C(C)C)N(C)C(=O)C2(NC(=O)[C@H]3CCCCN3C)CC2)OC(C)=O)n1`, the GI50 was 0.0209 µM and 0.00333 µM; the TGI is over 33.3 µM.

`c1ccc(SC(CCCCOC2CCCCO2)Sc2ccccc2)cc1` (centres undefined) displayed a TGI of over 100 µM.

`O=Cc1ccc(-c2cccc([N+](=O)[O-])c2)s1` showed a TGI of over 100 µM.

For `OCCNCCNc1c2ccccc2nc2oc3ccccc3c12`, the GI50 is 19.4 µM and the TGI was over 100 µM.

For the compound `O=C(N/C(=C\c1ccc(Oc2ccc(Cl)c(Cl)c2)cc1)c1nc2ccccc2[nH]1)c1ccccc1`, the TGI was 47.1 µM.

Compound `COc1ccc(/C(C)=N/NC(=O)c2ccncc2)cc1OC` registered a TGI of over 10 µM.

For the compound `Nc1ncnc2c(C3OC(CO)C(O)C3O)nsc12` (centres undefined), the TGI was over 100 µM.

In turn, `CC1(C)C2C/C(=C\c3ccccc3)C(=O)C1C2` (centres undefined) yielded a TGI of over 100 µM.

The compound `CC1CC(C)(O)CC(C(O)CC2CC(=O)NC(=O)C2)C1=O` (centres undefined) showed a TGI of 2.1 µM.

`N#CC(NNC(=O)c1ccccc1O)c1ccccc1` (centres undefined) yielded a TGI of over 100 µM.

In the case of `N=C(N)c1ccc(-c2ccc(-c3cccs3)s2)nc1`, the GI50 is 0.132 µM and the TGI was determined as 0.971 µM.

As to `COc1ccc(NS(=O)c2ccc(OC)cc2)cc1` (centres undefined), the TGI is over 100 µM.

`CCOC1C=CCCO1` (centres undefined) came in with a TGI of over 100 µM.

On to `ClCc1ccc2ccc3ccc(CCl)nc3c2n1`, for which the TGI is 12.6 µM.

`CS/C(c1ccccc1)=[N+](/C)[O-]` showed a TGI of over 100 µM.

Compound `CCN(CC)CCC(=O)c1ccc(Oc2ccccc2)cc1` returned a TGI of over 100 µM.

Consider `Cc1cc(-c2nc3cc(O)ccc3s2)ccc1N`, for which the TGI is over 100 µM.

Take `Oc1c(N=Nc2ccccc2)c2ccccc2c2ccc3ccccc3c12`: the TGI is over 100 µM.

Compound `NS(=O)(=O)c1nnc(/N=C(/CCC(=O)O)C(=O)O)s1` showed a TGI of over 100 µM.

In the case of `O=C(OC(/C=C/c1ccccc1)P1(=O)N(Cc2ccccc2)[C@@H]2CCCC[C@H]2N1Cc1ccccc1)c1ccccc1` (some centres undefined), the TGI was over 100 µM.

`Nc1cccc(C#Cc2cccc(C#Cc3cccc(N)n3)n2)n1` came in with a TGI of over 100 µM.

The compound `Cc1cc(N)ccc1C=O` had a TGI of over 100 µM.

The compound `Cc1cc(C)c(NS(=O)c2cccc(Cl)c2)c(C)c1` (centres undefined) had a TGI of over 100 µM.

Regarding `C[CH2][Sn]([Cl])([Cl])[CH2]C`, the GI50 was over 100 µM and the TGI was over 100 µM.

As for `COc1ccc2c(c1)CCCN1Cc3ccccc3CC21` (centres undefined), the TGI is over 100 µM.

For `COc1ccccc1/C=N/N=C(\N)NO`, the TGI is over 100 µM.

In turn, `CC1=NN(C(=O)c2ccccc2O)C(c2ccccc2Cl)C1C(=O)Nc1ccccc1` (centres undefined) had a TGI of over 100 µM.

For the compound `CC1/C(=N/Nc2ccc([N+](=O)[O-])cc2)CC2C3(C)CCC2(C(C)C(=O)O)C(=O)C13` (centres undefined), the GI50 was 55.8 µM and the TGI was over 100 µM.

`COC(=O)c1c(O)ccc2c1c1c(n2-c2ccc(OC)cc2)C(=O)c2ccccc2C1=O` had a TGI of 56.2 µM.

In the case of `CCOc1ccccc1NC(=O)C1=C(C)NC(C)=C(C(=O)Nc2ccccc2OCC)C1c1ccc(NC(C)=O)cc1`, the TGI was over 100 µM.

On to `C=C1C(=O)O[C@H]2[C@H]1CC/C(CNS(=O)(=O)c1cccc3ccccc13)=C\CC[C@@]1(C)O[C@@H]21`, for which the GI50 is 10.8 µM and the TGI was found to be 23 µM.

`O=C(CN1C(=O)c2ccccc2C1=O)C(O)CN1C(=O)c2ccccc2C1=O` (centres undefined): the TGI is over 100 µM.

Take `COc1cc(-c2oc(C=Nc3ccccc3)c([N+](=O)[O-])c2-c2ccc(O)c(OC)c2)ccc1O`: the TGI was over 100 µM.

The compound `Cc1ccc(C2=C(c3ccccc3)C(Br)(c3ccccc3)C(c3ccccc3)=C2c2ccc(C)cc2)cc1` gave a TGI of over 100 µM.

`C/C(=C\CC[C@]1(C)OC(C)(C)OC1CC/C(C)=C/CO[Si](c1ccccc1)(c1ccccc1)C(C)(C)C)CC/C=C/CO[Si](C)(C)C(C)(C)C` (some centres undefined): the TGI was over 100 µM.

For `S=C(Nc1ccccc1)N(Cc1ccccc1)c1ccccc1`, the TGI is over 100 µM.

As for `COc1cc(C2c3cc4c(cc3[C@@H](NCCCN(C)C)[C@H]3COC(=O)C23)OCO4)cc(OC)c1O` (some centres undefined), the GI50 was 1.16 µM and 2.68 µM; the TGI was 7.16 µM and 16.4 µM.

Regarding `C=C(C)[C@H](O)C(O)CC(C)[C@@H]1CCC23CC12CCC1[C@@]2(C)CCC(OC(C)=O)C(C)(C)C2CC(OC2OC(COC(C)=O)C(O)C(O)C2O)[C@]13C` (some centres undefined), the TGI is 12.2 µM.

Turning to `CC(C)C[C@@H]1NC(=O)[C@@H]2CCCN2C(=O)[C@@H]2CCCN2C(=O)[C@H](CC(C)C)NC(=O)[C@H](CO)NC(=O)[C@H](CCCCN)NC(=O)[C@H]([C@H](C)O)NC(=O)[C@@H]2CCCC[C@@H](NC1=O)C(=O)N[C@@H](Cc1ccccc1)C(=O)N1CCC[C@H]1C(=O)N[C@@H](CC(=O)O)C(=O)NCC(=O)N[C@@H](CCCN=C(N)N)C(=O)N2`, the GI50 is over 50 µM and the TGI is over 50 µM.

`COc1ccc(/C=C2\CN(C)CC3C2=NC(=S)NC3c2ccc(OC)cc2)cc1` (centres undefined): the TGI is over 100 µM.

In turn, `O=C(/C=C1/NC(=O)CS1)Nc1ccccc1` displayed a TGI of over 100 µM.

As to `CCSC(=O)/C=C1\CN(C(=O)OC(C)(C)C)C1C(=O)OC(C)(C)C` (centres undefined), the TGI was found to be 23.1 µM.

`CN(C)CCCNc1ccc2nnn3c4ccc(OC(=O)c5ccc([N+](=O)[O-])cc5)cc4c(=O)c1c23` showed a TGI of 20.4 µM.

`O=C1CCc2cc3c(cc21)CC1(Cc2cc4c(cc2C1)CCCC4)C3` displayed a TGI of over 100 µM.

`N#CC(C#N)=C1SCC(=O)CS1` came in with a TGI of over 100 µM.

In turn, `CN(C)c1ccc(N=Nc2cccc3ncccc23)cc1` gave a TGI of over 100 µM.

With `C[CH2][Sn]([CH2]C)([O]C(=O)c1cccc(F)c1)[O][Sn]([CH2]C)([CH2]C)[O]C(=O)c1cccc(F)c1`, the GI50 was 40.7 µM and the TGI is over 100 µM.

With `O=Cc1ccc(O)c2ncccc12`, the GI50 is 4.87 µM and the TGI worked out at 74.1 µM.

As to `CSC1C(=O)c2ccccc2/C(=N/Nc2nc3ccccc3s2)C1C` (centres undefined), the GI50 is 20.7 µM and the TGI was over 50 µM.

In turn, `O=C(NCCN1CCCC1)c1cn2c(ccc3sc4ccccc4c(=O)c32)n1` yielded a TGI of 20.3 µM.

Take `COc1cc(-c2oc3c(OC)c(O)c(OC)c(O)c3c(=O)c2OC)ccc1O`: the TGI is over 100 µM.

`CCOC(=O)NC(=O)c1cn(CCN2CCN(C(=O)NCCCCCCNC(=O)N3CCN(CCn4cc(C(=O)NC(=O)OCC)c(=O)n(CCN(CC)CC)c4=O)CC3)CC2)c(=O)n(CCC(CC)CC)c1=O` had a TGI of over 100 µM.

`Fc1ccc(Nc2nnc(-c3ccccn3)s2)cc1` returned a TGI of over 100 µM.

Compound `Cc1cc(=O)oc2cc(OCc3nc4ccccc4c(=O)[nH]3)ccc12` gave a TGI of over 100 µM.

Consider `O=[N+]([O-])/C=C/COCc1cc2c(cc1Br)OCO2`, for which the TGI is over 100 µM.

The compound `CC(C)c1nc2c(Cl)c3ncccc3cc2[nH]c1=O` had a TGI of over 100 µM.

Take `C/C(=N\O)C(CN1CCCCC1)C(c1ccccc1)c1c(O)c2ccccc2oc1=O` (centres undefined): the TGI was over 100 µM.

Compound `O=C(NCP(=O)(O)O)c1cccnc1` displayed a TGI of over 100 µM.

Consider `CC(C)(c1ccc(OC#N)cc1)c1ccc(OC#N)cc1`, for which the TGI was over 100 µM.

In turn, `COC(=O)/C=C(/C(=O)OC)c1c(C)cc2c(C)cc(C)cc(C)c1-2` had a TGI of over 100 µM.

On to `COC(=O)[C@@]1(O)C[C@H]2O[C@]1(C)n1c3ccccc3c3c4c(c5c6ccccc6n2c5c31)C(=O)NC4`, for which the GI50 was 1.14 µM and the TGI was 4.38 µM.

Regarding `NC(CCSC(F)F)C(=O)O` (centres undefined), the TGI was over 100 µM.

As for `Clc1ccc2c(c1)-c1ccccc1C1=NCCN12`, the GI50 is 2.09 µM and the TGI is 5.68 µM.

Consider `Nc1ncc(CN2CCOCC2)c(-c2ccccc2O)n1`, for which the TGI is over 100 µM.

For the compound `COc1cccc(C[C@H]2COC(=O)[C@]2(O)Cc2cccc(OC)c2)c1`, the TGI is over 100 µM.

The compound `OC(C/C(=N\N=C(/CC(O)(C(F)(F)F)C(F)(F)F)c1ccccc1)c1ccccc1)(C(F)(F)F)C(F)(F)F` yielded a TGI of over 10 µM.

Turning to `COC(=O)CC1(O)C(/C=C/c2ccccc2)C(C(=O)OC)C(=O)C(C(=O)OC)C1C(=O)OC` (centres undefined), the TGI was over 100 µM.

With `CNc1nc(N(C)C)nc(N(C)C)n1`, the GI50 was > 100 µM and 1530 µM; the TGI was > 100 µM and 4290 µM.

The compound `CCCCc1ccc(Nc2nc(N)c3ncn(COCCO)c3n2)cc1` returned a TGI of over 100 µM.

For `CN(C)CCNC(=O)c1cc2c3ccccc3[nH]c2c2ncccc12`, the GI50 is 14.4 µM and the TGI came to 74.5 µM.

The compound `CC(=O)N1N=C(c2c(O)ccc3ccccc23)CC1c1ccc(Cl)cc1` (centres undefined) registered a TGI of over 100 µM.

As for `C/C=C/C=C\C1OC(O)([C@H](CC)C(=O)NC/C=C/C=C(\C)[C@H](OC)C(C)C2OC(\C=C/C=C/C=C(\C)C(=O)c3c(O)ccn(C)c3=O)[C@H](O)[C@@H]2O)C(O)C(O)C1(C)C` (some centres undefined), the TGI is over 100 µM.

Consider `CC(=O)N1C2=CCCC2(C)c2ccccc21` (centres undefined), for which the TGI was over 100 µM.

The compound `COc1ccc2c(c1)N=C1CSC(c3c(Cl)cccc3[N+](=O)[O-])N1C2` (centres undefined) had a TGI of over 100 µM.

For the compound `COC(=O)C1(C)CCCC2(C)C3CCC4CC3(C=C4CO)CCC12` (centres undefined), the TGI was over 100 µM.

With `CCCN(CCC)C(=O)[C@H](CC)[C@@H]1CC[C@@H](C)[C@@H]([C@H](C)[C@@H](O)[C@@H](C)C(=O)[C@H](CC)C2O[C@]3(C=C[C@@H](O)[C@]4(CC[C@@](C)([C@H]5CC[C@](O)(CC)[C@H](C)O5)O4)O3)[C@H](C)C[C@@H]2C)O1` (some centres undefined), the GI50 is 2.38 µM and the TGI came out at 7.58 µM.

`CC[C@](C)(O)C(=O)O[C@H]1C(=O)O[C@@H]2C[C@H]3C(C)=C[C@H](O)[C@@H](O)[C@]3(C)[C@H]3[C@@]4(O)OC[C@]32[C@@H]1[C@@H](C)[C@H]4O` returned a TGI of 320 µM.

In the case of `Cc1ccc(S(=O)(=O)Nc2nc3ccccc3nc2Nc2ccc3nsnc3c2)cc1`, the GI50 is 3.81 µM and 2.78 µM; the TGI was over 100 µM.
